Measured values taken from PubChem BioAssay AID2451 (National Center for Advancing Translational Sciences (NCATS), 2010).
Out of some 290,000 compounds screened, about 2,100 (0.72%) were called active. The inconclusive results got no clear call from the source; some entries with a clear call stand among them for comparison. The call rests on the fitted dose curve; in most records, active means well fitted inhibition curve with a large enough effect; inconclusive means small, poorly fitted or top-dose-only effect, or effect the other way; inactive means flat fitted curve, though single readings scatter. Potencies beside an inconclusive call are fits to weak or partial responses and may not hold up.

What follows are molecules tested against Fructose-bisphosphate aldolase (Giardia intestinalis (strain ATCC 50803 / WB clone C6)) (UniProt A8B2U2) (assay: qHTS Assay for Inhibitors of Fructose-1,6-bisphosphate Aldolase from Giardia Lamblia). Settings: purified Giardia FBPA; activity, negative = inhibition: at 59.6 µM (top of the series) unless noted.
Sequence of UniProt A8B2U2 (A8B2U2 whole entry, looked up): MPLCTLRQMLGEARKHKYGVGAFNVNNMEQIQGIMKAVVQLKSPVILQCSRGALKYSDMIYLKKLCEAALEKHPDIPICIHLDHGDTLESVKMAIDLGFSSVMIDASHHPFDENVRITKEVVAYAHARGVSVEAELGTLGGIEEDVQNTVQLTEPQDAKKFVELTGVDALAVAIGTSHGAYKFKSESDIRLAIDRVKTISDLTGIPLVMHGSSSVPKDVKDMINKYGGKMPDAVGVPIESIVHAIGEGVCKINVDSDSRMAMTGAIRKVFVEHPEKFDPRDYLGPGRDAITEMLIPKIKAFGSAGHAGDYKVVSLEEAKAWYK
How it was run: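 Giardia FBPA (40 nM reagent) was preincubated 10 min at RT with compound (up to 57.5 uM final), then substrate plus GAPDH/TPI/NAD/arsenate coupling system with diaphorase/resazurin was added; resorufin fluorescence (525/598 nm) was read after 20 min.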
Further: nearly all actives have a fitted effect of over 55% in size.
On the % scale 0 is the no-effect control and ±100 the full control effect; potency means the concentration at half of the fitted maximal effect; tags describe the fitted curve by direction and shape.

SMILES | Potency | activity, negative = inhibition
CCOc1ccc(N2C(=O)/C(=C/c3ccc(C)o3)C(=O)NC2=S)cc1 | inconclusive: 17.8 µM [inhibitor, partial curve] | –
c1ccc(-c2nc3ccccc3nc2-c2ccccn2)nc1 | inconclusive: 19.9 µM [inhibitor, partial curve] | –
O=C(Oc1cccc2cccnc12)c1cccs1 | inconclusive: 44.6 µM [inhibitor, single point] | –
O=[N+]([O-])c1ccc(OCCCCN2CCc3ccccc3C2)cc1 | inconclusive: 11.2 µM [inhibitor, partial curve] | –
CCNC(=S)N/N=C(\C)c1ccco1 | active: 17.7 µM | –
NC[C@@H]1O[C@H](c2ccccc2)Cc2c1ccc(O)c2O | inconclusive: 25.1 µM [inhibitor, partial curve] | –
CCOP(=O)(OCC)c1nc(-c2ccccc2)oc1NCc1ccccc1 | – | inactive: -0.39%
CC1CN(C2CCN(C(=O)COc3ccc(Cl)cc3)CC2)CC(C)O1 (stereo not drawn) | inconclusive: 19.9 µM [inhibitor, partial curve] | –
NC(=O)c1c(NC(=O)C(=O)N2CCOCC2)sc2c1CCC2 | – | inactive: 12.2%
COc1cc2c(cc1OC)-c1cc3ccc4c(c3c[n+]1CC2)OCO4 | inconclusive: 1.99 µM [inhibitor, full curve] | –
COC(=O)Cc1ccc2sc(-c3ccccc3)nc2c1 | – | inactive: -5.5%
C=CCn1c(CSc2nnc(-c3ccccc3)n2C)n[nH]c1=S | inconclusive: 2.23 µM [inhibitor, full curve] | –
O=C1c2ccccc2C(=O)N1Cc1ccc2c(c1)OCO2 | – | inactive: 4.57%
O=C1COc2ccc(-c3csc(=Nc4ccc(OC(F)F)cc4)n3CC3CCCO3)cc2N1 (stereo not drawn) | – | inactive: -3.07%
O=S(=O)(c1ccc2nc(Nc3ccccc3)ccc2c1)N1CCCCC1 | inconclusive: 20 µM [inhibitor, partial curve] | –
N#Cc1c(N2CCN(c3ccc(F)cc3)CC2)nc(N)c2c(N)nc3c(c12)CC(=O)N3C1CC1 | inconclusive: 8.89 µM [inhibitor, partial curve] | –
O=C(NCC#CCOCc1ccccc1)c1ccccc1 | – | inactive: -8.78%
Cc1ccc(-n2sc3ccccc3c2=O)cc1 | inconclusive: 12.6 µM [inhibitor, partial curve] | –
COc1ccc(NC(=S)N(CCCN2CCCC(C)C2)Cc2cccs2)cc1 (stereo not drawn) | inconclusive: 31.5 µM [inhibitor, single point] | –
Cc1cc(C)nc(NS(=O)(=O)c2ccc(NC(=O)Cc3ccc(F)cc3)cc2)n1 | inconclusive: 17.8 µM [inhibitor, partial curve] | –
CCN(/N=C/c1ccc(Cl)cc1)c1cc(=O)n(C)c(=O)[nH]1 | inconclusive: 15.8 µM [inhibitor, partial curve] | –
COc1ccc(N(CC(=O)O)S(=O)(=O)c2ccc(OC)c(OC)c2)cc1 | inconclusive: 25.1 µM [activator, single point] | –
CN1CCN(CC(=O)Nc2cc(N(C)C)nc3ccccc23)CC1 | inconclusive: 15.8 µM [inhibitor, partial curve] | –
COc1ccc(N2C=C3C(=O)C(C)(OC(=O)C4CCCC4)C(=O)C=C3C=C2c2ccsc2)cc1 (stereo not drawn) | inconclusive: 7.06 µM [inhibitor, single point] | –

SMILES | Potency | activity, negative = inhibition
COc1cccc(C2=Nc3cccc4cccc(c34)N2)c1 | inconclusive: 14.1 µM [inhibitor, single point] | –
COc1ccc([C@]23Cc4ccccc4C(O2)C2=C(CC4(CCCCC4)OC2=O)O3)cc1 | – | inactive: 2.97% [at 12.9 µM]
Cc1nc(Nc2ccccc2)sc1C(=O)Nc1ccccc1 | – | inactive: -3.76%
NC(=O)c1ccc(NCC2COc3ccccc3O2)c([N+](=O)[O-])c1 (stereo not drawn) | – | inactive: 3.46%
CCN(CC)S(=O)(=O)c1cc(C(=O)O)ccc1Cl | inconclusive: 25.1 µM [activator, single point] | –
CC(=O)c1cc2c(cc1NC(=O)CN1CCCCCC1)OCO2 | inconclusive: 15.8 µM [inhibitor, partial curve] | –
CC1(C)C[C@@H]2C(=O)CCC3O[C@@]3(C)CCC21 (stereo partly drawn) | – | inactive: 2.56%
O=C(CC1C(=O)NCCN1Cc1cccc(F)c1)NC1CCC1 (stereo not drawn) | – | inactive: -16.3%
COCCOC(=O)c1c(N)n(Cc2ccccc2)c2nc3ccccc3nc12 | inconclusive: 15.8 µM [inhibitor, single point] | –
CCOC(=O)N1CCN(CCC(=O)Nc2cccc(C)c2)CC1 | inconclusive: 22.4 µM [inhibitor, partial curve] | –
COCCCN1CCc2[nH]c(=S)[nH]c(=O)c2C1 | inconclusive: 12.6 µM [inhibitor, partial curve] | –
O=C(Nc1ccc(F)c([N+](=O)[O-])c1)c1ccc2c(c1)OCCO2 | – | inactive: -5.76%
COc1ccc(CNC(=O)N[C@@H](CC(C)C)C(=O)O)cc1OC | – | inactive: 2.81%
CC1=NN(c2ccc(Cl)c(C(=O)O)c2)C(=O)/C1=C\c1ccc(-c2ccc(C(=O)O)cc2)o1 | inconclusive: 8.89 µM [inhibitor, partial curve] | –
Cc1ccc(S(=O)(=O)NCc2ccc(N3CCN(C(=O)OC(C)(C)C)CC3)cc2)cc1 | – | inactive: 2.87%
Cc1cc(C)c(NC(=S)NCCCSC2CCCCC2)c(C)c1 | active: 15.8 µM | –
COC(=O)c1ccc(OCCCCN2CC(C)OC(C)C2)cc1 (stereo not drawn) | inconclusive: 15.8 µM [inhibitor, partial curve] | –
CC(=O)Nc1cccc(NC(=O)c2ccco2)c1 | – | inactive: -6.85%
Cc1ccc(-n2nc3c(=S)[nH]nc(C)c3c2C)cc1 | active: 25.1 µM | –
COc1ccccc1C(=O)Nc1nnc(S(=O)(=O)N2CCCCCC2)s1 | inconclusive: 35.5 µM [inhibitor, single point] | –
Cc1nc(SCC(=O)c2ccccc2)c(C#N)c(-c2ccco2)c1C(=O)NCc1ccco1 | inconclusive: 9.98 µM [inhibitor, partial curve] | –
O=C(NCC(=O)N(Cc1cccs1)C(C(=O)NC1CCCC1)c1ccncc1)c1ccco1 (stereo not drawn) | – | inactive: -19.1%
Cc1ccc(O)c(C(=O)c2cc(C(=O)NCc3ccccc3)c(=O)n(Cc3ccccc3)c2)c1 | – | inactive: -2.8%
CNc1nc(NCc2ccccc2)c2ccccc2n1 | inconclusive: 28.2 µM [inhibitor, single point] | –
